Experimental data from the supplement of paper PMC10369915.
This is one part of the list. No stated cut-off is given here; in the data, active = 3.2 or more and inactive = the rest. Only a few entries rise above the background.

Columns and labels:
Assay in all cases: enrichment score (SH2-bound / input frequency) (ratio); bacterial display of known human phosphotyrosine sites (pTyr-Var adds point mutants) read by sequencing; higher = stronger binding; tyrosines were phosphorylated by kinases first
Conditions in all cases: peptide library: pTyr-Var
SHP2 C-SH2 domain E139D = biological target: SHP2 C-SH2 domain E139D
[1] = biological target: SHP2 C-SH2 domain wild-type
SHP2 N-SH2 domain L43F = biological target: SHP2 N-SH2 domain L43F
SHP2 N-SH2 domain T42A = biological target: SHP2 N-SH2 domain T42A
SHP2 N-SH2 domain T52S = biological target: SHP2 N-SH2 domain T52S
[2] = biological target: SHP2 N-SH2 domain wild-type

Measured: enrichment score
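Further: displayed peptides selected on beads carrying the immobilized SH2 domain, with library peptides lacking any tyrosine serving as negative controls.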

B1: LEMD3_Y258 (peptide)
chain: SCRENYSDSEE
inactive: SHP2 C-SH2 domain E139D 0.415 | [1] 0.453 | SHP2 N-SH2 domain L43F 0.532 | SHP2 N-SH2 domain T42A 0.522 | SHP2 N-SH2 domain T52S 0.61 | [2] 0.48

B2: LEMD3_Y258_D260Y_YF (peptide)
chain: SCRENYSFSEE
inactive: SHP2 C-SH2 domain E139D 0.627 | [1] 0.631 | SHP2 N-SH2 domain L43F 0.554 | SHP2 N-SH2 domain T42A 0.55 | SHP2 N-SH2 domain T52S 0.527 | [2] 0.604

B3: LGALS3_Y221_R224Q (peptide)
chain: AHLLQYNHQVK
inactive: SHP2 C-SH2 domain E139D 0.912 | [1] 0.868 | SHP2 N-SH2 domain L43F 0.987 | SHP2 N-SH2 domain T42A 0.854 | SHP2 N-SH2 domain T52S 1.16 | [2] 0.567

B4: LGI1_Y21 (peptide)
chain: LKRIAYFLCLL
active: SHP2 C-SH2 domain E139D 4.66 | [1] 5.05 | SHP2 N-SH2 domain L43F 4.3 | SHP2 N-SH2 domain T42A 4.1 | SHP2 N-SH2 domain T52S 5.92 | [2] 4.5

B5: LGR4_Y848 (peptide)
chain: YDCGMYSHLQG
inactive: SHP2 C-SH2 domain E139D 1.19 | [1] 1.56 | SHP2 N-SH2 domain L43F 1.2 | SHP2 N-SH2 domain T42A 1.23 | SHP2 N-SH2 domain T52S 1.24 | [2] 1.2

B6: LGR4_Y848_D844G (peptide)
chain: YGCGMYSHLQG
inactive: SHP2 C-SH2 domain E139D 1.04 | [1] 1.12 | SHP2 N-SH2 domain L43F 1.16 | SHP2 N-SH2 domain T42A 0.904 | SHP2 N-SH2 domain T52S 0.835 | [2] 1.39

B7: LGR4_Y848_YF (peptide)
chain: FDCGMYSHLQG
inactive: SHP2 C-SH2 domain E139D 1.47 | [1] 1.17 | SHP2 N-SH2 domain L43F 1.13 | SHP2 N-SH2 domain T42A 0.984 | SHP2 N-SH2 domain T52S 0.996 | [2] 1.3

B8: LIG3_Y767 (peptide)
chain: KVNKIYYPDFI
inactive: SHP2 C-SH2 domain E139D 1.23 | [1] 1.02 | SHP2 N-SH2 domain L43F 1.21 | SHP2 N-SH2 domain T42A 1.05 | SHP2 N-SH2 domain T52S 1.37 | [2] 1.27

B9: LIG3_Y768_Y768H_YF (peptide)
chain: VNKIFHPDFIV
inactive: SHP2 C-SH2 domain E139D 1.22 | [1] 0.892 | SHP2 N-SH2 domain L43F 1.12 | SHP2 N-SH2 domain T42A 1.01 | SHP2 N-SH2 domain T52S 0.887 | [2] 0.98

B10: LILRB4_Y360_K362E (peptide)
chain: PQAVTYAEVKH
active: [1] 5 | SHP2 N-SH2 domain T42A 6.74
inactive: SHP2 C-SH2 domain E139D 2.64 | SHP2 N-SH2 domain L43F 2.54 | SHP2 N-SH2 domain T52S 2.44 | [2] 1.01
